In ChEMBL document CHEMBL1201862, “PubChem BioAssay data set” (2004):
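In this assay, cells in 96-well plates receive the compound at five concentrations for 48 hours. Endpoints are linearly interpolated between the surrounding concentrations. GI50 marks 50% less growth.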 Activity calls are given as the source filed them. Rule as the data show it: active = GI50 up to about 1.1 µM and inactive = higher. Square brackets hold non-standard residues; d marks the D form. Peptide text beside a SMILES is read from it. * marks the point of attachment. ξ: configuration not given here. ξW = NC(Cc1c[nH]c2ccccc12)C(=O)O; X26 = O=C(O)[C@H]1CCC[C@H]1N*; ξF = NC(Cc1ccccc1)C(=O)O; Boc = CC(C)(C)OC(=O)*; ξK = NCCCCC(N)C(=O)O; ξT = CC(O)C(N)C(=O)O; tBu = CC(C)(C)*

The compounds below were run on NCI-H322M (assay: DTP human tumour cell line panel, 48 h).
For `O=C(Nc1ccccc1C(=O)NCc1ccccc1)/C(=C/c1ccccc1O)NC(=O)c1ccccc1`, the GI50 was inactive: > 100 µM. In the case of `O=C1CSc2nc3ccccc3n2/C=N\N1`, the GI50 is reported as inactive: > 100 µM. In the case of `Cc1ccc(S(=O)(=O)NN=C2CCCCCCCCCCC2)cc1`, the GI50 is reported as inactive: > 100 µM. With `C/C(=N/N)c1sc(-c2nc(C)c(/C(C)=N\N)s2)nc1C` the GI50 was inactive: > 100 µM. For `CCOC(=O)c1c(N=C(S)Nc2ccccc2)sc2c1CCN(C)C2`, the GI50 was inactive: > 100 µM. In the case of `O=C1/C(=C/c2ccc(O)cc2)CCc2ccccc21`, the GI50 is reported as inactive: 33.8 µM. In the case of `Cc1cc(OC2OC(CO)C(O)C(O)C2O)ccc1O` (stereo unspecified), the GI50 is reported as inactive: > 100 µM. With `CC1(C)CN=C(Nc2ccc(F)cc2)S1` the GI50 was inactive: > 100 µM. In the case of `N#Cc1nc(Nc2ccc(Cl)cc2)sc1N`, the GI50 is reported as inactive: 36.8 µM. With `COc1ccc(O)c(/C=N/CCC/N=C/c2cc(OC)ccc2O)c1` the GI50 was inactive: 17.8 µM. For `NC(=O)COc1c(Br)cc(Br)cc1Br`, the GI50 was inactive: > 100 µM. With `CN1C(=O)C(=CNc2ccccc2[N+](=O)[O-])C(=O)N(C)C1=O` the GI50 was inactive: > 100 µM. `CC[C@H](C)[C@H](NC(=O)[C@@]1(O)[C@H](O)[C@]2(CC)C=CCN3CC[C@@]4(c5cc(Br)c(OC)cc5N(C)[C@@H]14)[C@@H]32)C(=O)OC` was tested, and the GI50 was inactive: 35.1 µM. With `CCCCCCc1cc2cc(C(=O)Nc3nc(C45CC6CC(CC(C6)C4)C5)cs3)c(=O)oc2cc1O` the GI50 was inactive: 17.9 µM. `COc1ccc(C(=O)O[C@@H]2CCN3CC[C@H](C)[C@H]23)cc1` was tested, and the GI50 was inactive: > 100 µM. `O=[N+]([O-])c1ccc(/N=N/c2c(O)ccc3cc(S(=O)(=O)O)cc(S(=O)(=O)O)c23)cc1` was tested, and the GI50 was inactive: > 100 µM. `CSc1nc(NC2CCCC2)c2cc[nH]c2n1` was tested, and the GI50 was inactive: > 100 µM. For `CC1CCC/C1=C(/I)C(=O)c1ccccc1` (stereo unspecified), the GI50 was inactive: > 100 µM. In the case of `CC(=O)N[C@@H](Cc1ccc(O)cn1)C(=O)NCc1cccc(Cl)c1`, the GI50 is reported as inactive: > 100 µM. `COc1cc(C(=O)C/C(CCC(=O)Nc2ccccc2[N+](=O)[O-])=N\NC(=O)CC#N)ccc1O` was tested, and the GI50 was inactive: > 100 µM. With `COC(=O)NNC(c1ccc(Cl)cc1)c1ccc(Cl)cc1` the GI50 was inactive: 16.9 µM. For `CCCCCCCCCCCCCCCCCc1nc(C#N)c(N)o1`, the GI50 was inactive: > 100 µM. With `NC(CSC(c1ccccc1)(c1ccccc1)c1ccccc1)C(=O)O` (stereo unspecified) the GI50 was active: 0.944 µM. For `Cc1cn(Cc2cnnn2CC2OC(n3cc(C)c(=O)[nH]c3=O)CC2O)c(=O)[nH]c1=O` (stereo unspecified), the GI50 was inactive: > 100 µM. In the case of `COC(=O)c1ccccc1C1=C([N+](=O)[O-])C(c2cccc(Br)c2)C(C#N)=C(N)O1` (stereo unspecified), the GI50 is reported as inactive: > 100 µM. `O=C1NC2(O)c3ccccc3C(=O)C2(O)N1c1ccccc1` (stereo unspecified) was tested, and the GI50 was inactive: > 100 µM. In the case of `CCOC(=O)[C@@H]1ON2O[C@H](OC3CCCC3(c3ccccc3)c3ccccc3)C[C@H]3OC(=O)[C@@H]1C32` (stereo partly specified), the GI50 is reported as inactive: 77.4 µM. In the case of `CC(NC(=O)Cc1ccccc1)NC(=O)C(C)C(=O)Nc1ccccc1` (stereo unspecified), the GI50 is reported as inactive: > 100 µM. For `NNc1nncn1N`, the GI50 was inactive: > 100 µM. `CN(C)Cc1[nH]c2ccccc2c1C(=O)c1ccccc1` was tested, and the GI50 was inactive: > 100 µM. `O/N=C(\c1nc2ccc(Cl)cc2nc1O)C(O)c1ccc(Cl)cc1Cl` (stereo unspecified) was tested, and the GI50 was inactive: > 100 µM. In the case of `NC(=O)C(N)CC12CC3CC(CC(C3)C1)C2` (stereo unspecified), the GI50 is reported as inactive: 42.3 µM. With `Cc1ccc(/N=C2\C(=N/c3ccc(C)cc3)N(c3ccc(C)cc3)C(=S)N2C(=O)c2ccccc2)cc1` the GI50 was inactive: > 100 µM. `C[n+]1c2ccccc2c(/C=N\NS(=O)(=O)c2ccc(Cl)cc2)c2ccccc21` was tested, and the GI50 was inactive: > 100 µM. For `O/N=N/c1ccc([SH2]c2ccc3ccccc3c2)cn1`, the GI50 was inactive: 40 µM. `C=CCc1ccc(Oc2cc(CC=C)c3c(c2O)O[C@@H](CO)[C@H]3c2ccc(O)c(-c3cc(CC=C)ccc3O)c2)cc1` was tested, and the GI50 was inactive: 59.3 µM. `NCCNC(=S)S` was tested, and the GI50 was inactive: > 100 µM. For `Nc1ccc2c(c1)nc1n2C(c2c(F)cccc2F)SC1` (stereo unspecified), the GI50 was inactive: > 100 µM. In the case of `COC(=O)/C=C/CCC#Cc1ccccc1C#CCC/C=C/C(=O)OC`, the GI50 is reported as inactive: 31.4 µM. `CCOC(=O)C1(C/C=C/CBr)CCc2ccccc2C1=O` (stereo unspecified) was tested, and the GI50 was inactive: 19.1 µM. With `CC(=O)NC1C(OCc2ccccc2)OC(CO)C(O)C1OC(C)C(=O)NC(C(=O)NC(CCC(=O)NCCCNc1ccc([N+](=O)[O-])c2[nH]c3ccccc3c(=O)c12)C(N)=O)C(C)C` (stereo unspecified) the GI50 was inactive: > 100 µM. With `O=C(CC1(O)C(=O)Nc2c(Cl)cc(Cl)cc21)c1cccc2ccccc12` (stereo unspecified) the GI50 was inactive: 19.3 µM. `O=C1CC(c2ccco2)C2(C(=O)NC(=O)NC2=O)C(c2ccco2)C1` (stereo unspecified) was tested, and the GI50 was inactive: > 75 µM. `CC(OC(C)(C)C)C(NC(=O)C(CCCCNC(=O)OC(C)(C)C)NC(=O)C(Cc1c[nH]c2ccccc12)NC(=O)C(N)Cc1ccccc1)C(=O)NC(Cc1ccccc1)C(=O)N[C@@H]1CCC[C@@H]1C(=O)O` (stereo partly specified) (H-[ξF][ξW][ξK](Boc)[ξT](tBu)[ξF]-X26) was tested, and the GI50 was inactive: 40.1 µM. In the case of `CC1=C(C(=O)Nc2ccccc2)C(c2ccc3c(c2)OCO3)C(C(=O)Nc2ccccc2)=C(C)N1`, the GI50 is reported as inactive: 66.8 µM. For `CCCCCCCCCCCCCCCCNc1nc(=O)n(C2CC(O)C(CO)O2)cc1F` (stereo unspecified), the GI50 was inactive: 12.8 µM. In the case of `CCCC(=O)Oc1ccc2c(C)cc(=O)oc2c1OC(=O)CCC`, the GI50 is reported as inactive: 34.1 µM. With `COc1cccc(-n2c3nc(=O)n(C)c(=O)c-3nc3ccccc32)c1` the GI50 was inactive: 24 µM. `O=c1cc(N2CCOCC2)oc2c(-c3ccccc3)cccc12` [LY-294002] was tested, and the GI50 was inactive: 12.7 µM. In the case of `CCCCCCCCCCCCC(O)C1CCC(C(O)CCCCCCC(O)CCCCCCCC2=CC(C)OC2=O)O1` (stereo unspecified), the GI50 is reported as inactive: 53.7 µM. `COc1ccc(C=O)c(N(C)C(=O)C(C)(C)C)c1` was tested, and the GI50 was inactive: > 100 µM. With `Nn1c(S)nnc1NNC(=O)C(=O)Nc1cc(Cl)c(Cl)cc1Cl` the GI50 was inactive: > 100 µM. In the case of `Oc1cnnc2nc3ccccc3n12`, the GI50 is reported as inactive: > 100 µM. With `CC(=O)Oc1cccc2c1C(=O)C(Br)(Br)CCC2` the GI50 was inactive: 17.1 µM. `CN1CCCC2[C@@H]3CCC4=C(O)C(=O)CC[C@]4(C)C3CC[C@@]21C` (stereo partly specified) was tested, and the GI50 was inactive: > 100 µM. With `O=c1[nH]c(=O)n(C2CC(O)C(CO)O2)cc1C#Cc1ccc(C(F)(F)F)cc1` (stereo unspecified) the GI50 was inactive: > 100 µM. With `O=C(NCCN(CCNC(=O)c1cccc(=O)n1O)CCN(CCNC(=O)c1cccc(=O)n1O)CCNC(=O)c1cccc(=O)n1O)c1cccc(=O)n1O` the GI50 was inactive: > 100 µM. In the case of `Clc1ccc(CCc2ccncn2)c(Cl)c1`, the GI50 is reported as inactive: > 100 µM. For `Cc1ccc(/C=C2\CN(C)CC3=C2OC(N)=C(C#N)C3c2ccc(C)cc2)cc1` (stereo unspecified), the GI50 was inactive: 27.4 µM. For `CCOC(=O)C1S/C(=N\c2ccc(Cl)c(Cl)c2)N=C1C` (stereo unspecified), the GI50 was inactive: 55.1 µM. With `Cc1cccc(Nc2nc3ccccc3nc2NS(=O)(=O)c2ccccc2)c1` the GI50 was inactive: 37.5 µM. For `O=C1C2=C(c3ccccc31)C(c1cccc(Cl)c1)NC(S)=N2` (stereo unspecified), the GI50 was inactive: > 100 µM. For `Oc1ccc(/N=N/c2ccc(Cl)cc2)cc1`, the GI50 was inactive: 19.1 µM. `O=C(O)C1CCCCC1C(=O)Nn1cnnc1` (stereo unspecified) was tested, and the GI50 was inactive: > 100 µM. In the case of `Cc1c(C(=O)/C=C/c2ccccc2O)c(=O)n(-c2ccccc2)n1C`, the GI50 is reported as inactive: 22 µM. In the case of `COC1CC(OS(=O)(=O)c2ccc(C)cc2)C(OC(=O)c2ccccc2)C(C)O1` (stereo unspecified), the GI50 is reported as inactive: 57.4 µM.
